The record followed here is ChEMBL document CHEMBL1201862, “PubChem BioAssay data set” (2004).

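The compound was tested at five concentrations on cells cultured in 96-well plates, with a 48-hour exposure period. GI50: concentration for 50% inhibition of growth.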 Calls of active or inactive are those of the source. No stated cut-off is given here; in the data, active = GI50 up to about 1.1 µM and inactive = higher.

The assay deals with NCI-H322M. The assay is described as follows: inhibition of tumour cell growth, NCI panel, 48 h.
On to `CN(C)Cc1cc(C(C)(C)C)cc(CN(C)C)c1O`, for which the GI50 is inactive: 69.2 µM.

For `O=C(O)c1nn(-c2ccccc2-c2nnc(O)nc2O)c(=O)[nH]c1=O`, the GI50 was inactive: > 100 µM.

Consider `CN1CCCN(C)C1c1cc([N+](=O)[O-])ccc1O`, for which the GI50 was inactive: 37.7 µM.

Regarding `C[C@H](C/C=C/C(C)(C)O)[C@H]1CC[C@@]2(C)[C@@H]3CC[C@H]4C(C)(C)[C@@H](O)CC[C@@]45C[C@@]35CC[C@]12C`, the GI50 was inactive: 10.3 µM.

On to `CN1C(=O)C(c2c[nH]c3ccccc23)N(C)C(=O)C1c1c[nH]c2ccccc12` (stereo unspecified), for which the GI50 was inactive: > 100 µM.

Take `Nc1nc(Cl)c2ncn(Cc3ccccc3CCl)c2n1`: the GI50 is inactive: 12.4 µM.

On to `COc1ccc(/C=C2\NC(=S)N(CN3CCCCC3)C2=O)cc1`, for which the GI50 is inactive: > 100 µM.

For `CC(C)(C)c1cc(C(C)(C)C)c(SS(=O)(=O)O)c(O)c1O`, the GI50 was inactive: 33.6 µM.

Take `COc1cc(O)c2c(c1)OCC(Cc1ccc(O)cc1)C2=O` (stereo unspecified): the GI50 is inactive: > 100 µM.

Consider `CCOP(=O)(OCC)/C(=C\n1ccc(=O)[nH]c1=S)C(=O)OC`, for which the GI50 was inactive: > 100 µM.

For `Nc1cc2c3c(cccc3c1)C(=O)N(c1ccc(OCCN3CCCC3)cc1)C2=O`, the GI50 is inactive: 20.3 µM.

For `CCOC(=O)c1nc2cc(C(F)(F)F)ccc2nc1Nc1ccc(C(=O)OC)s1`, the GI50 is inactive: 51.3 µM.

With `O=C(CCN1CCOCC1)c1ccc(Oc2ccc(F)cc2)cc1`, the GI50 is inactive: > 100 µM.

In the case of `Cc1nc(O)nc(N(CCO)/N=C/c2ccc(Cl)cc2)c1C(=O)Nc1ccc(Cl)cc1`, the GI50 was inactive: > 100 µM.

As for `O=C(CC/C(CC(=O)c1ccc(Cl)cc1)=N\O)Nc1cccc(Cl)c1`, the GI50 is inactive: > 100 µM.

As to `NC(=S)NN=Cc1ccccc1OCc1cccc(COc2ccccc2C=NNC(N)=S)n1`, the GI50 was inactive: 9.66 µM.

As to `O=[N+]([O-])c1ccc(C2=Nc3ccccc3SC(c3ccccc3)C2)cc1` (stereo unspecified), the GI50 is inactive: 57.4 µM.

For the compound `O=C1CCC2CCC1C2` (stereo unspecified), the GI50 was inactive: > 100 µM.

For the compound `CCOC(=O)CCSS(=O)(=O)c1ccccc1`, the GI50 was inactive: > 100 µM.

Turning to `C[C@]12CCC(=O)C(OC(=O)c3ccc([N+](=O)[O-])cc3)=C1CCC2=O`, the GI50 is inactive: > 100 µM.

For `O=C(Nc1ccccc1[N+](=O)[O-])/C(=N/Nc1cccc(Cl)c1)c1c(O)c2ccccc2oc1=O`, the GI50 was inactive: 54.2 µM.

Take `C/C=C1\CN2CCc3c([nH]c4ccccc34)C2C=C1CCO` (stereo unspecified): the GI50 was inactive: > 340 µM.

Consider `CN(C)CC(/C(Cc1ccccc1)=N\NC(=O)c1ccncc1)c1ccccc1` (stereo unspecified), for which the GI50 was inactive: 41.5 µM.

For `CC1(c2nc3cc(Cl)c(Cl)cc3[nH]2)CCC(CO)C(C)(C)O1` (stereo unspecified), the GI50 was inactive: 51.4 µM.

Regarding `COC(=O)[C@](NC(=O)OCc1ccccc1)([C@@H](C)Sc1ccc(C)cc1)C(F)(F)F`, the GI50 is inactive: > 100 µM.

With `O=C(Cc1ccc(Cl)c(Cl)c1)N(CCc1ccc(Cl)c(Cl)c1)CCN1CCCC1`, the GI50 is inactive: 2.72 µM.

In the case of `COC1=CC23C=CC1[C@@H](c1ccccc1)C2=C(C)C(=O)N3C(=O)NC1CCCCC1` (stereo partly specified), the GI50 was inactive: 21.4 µM.

`CC1CCCCN1CC(=O)c1ccc2c(c1)Sc1ccccc1O2` (stereo unspecified): the GI50 is inactive: 13.6 µM.

Turning to `COc1ccc(-c2c(N)n(-c3cccc(C(=O)O)c3)c(=O)c3cc([N+](=O)[O-])ccc23)cc1`, the GI50 was inactive: > 100 µM.

With `NC(=O)Nc1c([N+](=O)[O-])cc(C(F)(F)F)cc1[N+](=O)[O-]`, the GI50 was inactive: > 100 µM.

For `Cc1ccc2cccc3c2c1CC1(C3=O)S(=O)(=O)OCCOS1(=O)=O`, the GI50 is inactive: > 100 µM.

Take `O=c1[nH]c(=O)n(C2CC(O)C(CO)O2)cc1C(F)(C(F)(F)F)C(F)(F)F` (stereo unspecified): the GI50 was inactive: > 100 µM.

Regarding `O=c1ccn(C2OC(CO)C(P(=O)(O)O)C2O)c(=O)[nH]1` (stereo unspecified), the GI50 is inactive: > 100 µM.

Turning to `C[N+]12C=CC=C1C(N1CCCC1)c1scc(-c3ccc(Br)cc3)c12` (stereo unspecified), the GI50 is inactive: 86.3 µM.

`CCOC(=O)/C(C(=O)Nc1ccc(F)cc1)=C(/N)N1CCOCC1`: the GI50 was inactive: > 100 µM.

Take `O=C(O)CCSC(=O)Nc1ccccc1`: the GI50 is inactive: > 100 µM.

On to `CON1C(=O)C2(CCCCC2)C(=O)C12C=CC(C)CC2` (stereo unspecified), for which the GI50 was inactive: > 100 µM.

For `NC(=S)N/N=C1\NC(=O)/C(=C/c2ccc3c(c2)OCO3)S1`, the GI50 was inactive: 27.4 µM.

Turning to `CC(C)=Cc1cc(C(=O)NCCNC(=O)c2cc(C=C(C)C)nc(NC#N)n2)nc(NC#N)n1`, the GI50 was inactive: > 100 µM.

With `N#CC1C(=O)NC(=O)C(C#N)C1c1ccc(Cl)c(Cl)c1` (stereo unspecified), the GI50 is inactive: > 100 µM.

Turning to `O=c1oc(=O)c2oc3ccccc3oc1=2`, the GI50 is inactive: > 100 µM.

With `C=C(Br)N(CC)CC`, the GI50 is inactive: > 100 µM.

On to `[O-][S+]1Cc2ccccc2CSS1` (stereo unspecified), for which the GI50 was inactive: > 100 µM.

For `CC(=O)Nc1ccc2cc(C#N)c(=O)[nH]c2n1`, the GI50 is inactive: > 100 µM.

For the compound `CCCCC1(C(NC(=O)c2ccccc2Cl)c2ccncc2)C(=O)N(c2ccccc2)N(c2ccccc2)C1=O` (stereo unspecified), the GI50 is inactive: > 100 µM.

As to `CSc1cc(Cl)c(C(=O)Nc2ccccc2)cc1S(=O)(=O)n1ccnc1O`, the GI50 is inactive: > 100 µM.

Take `Cc1c(O)c(=O)ccn1CCc1ccc(O)cc1`: the GI50 was inactive: 22.2 µM.

For the compound `O=C(NNc1cn[nH]c(=O)n1)c1cccc2nc3ccccc3nc12`, the GI50 was inactive: 38.6 µM.

Take `O=C1c2cc3ccccc3cc2C2(c3ccc(Cl)cc3)N[C@H]3CCCC[C@@H]3N12` (stereo partly specified): the GI50 is inactive: 15.8 µM.

With `Clc1nc(Cl)c(Cl)c(-c2ccccc2)n1`, the GI50 is inactive: 16.8 µM.

For `O=C(/C=C/c1ccc(C(F)(F)F)cc1)c1c([O-])on[n+]1-c1ccccc1`, the GI50 was inactive: 9.77 µM.

As to `COc1ccc(C2COc3c(ccc(O)c3C)C2)cc1OC` (stereo unspecified), the GI50 is inactive: 125 µM.

For the compound `COc1cccc(Nc2nc(N)nc(N)c2N=O)c1`, the GI50 is inactive: 15.1 µM.

`CCOC(=O)c1cc([N+](=O)[O-])c(Sc2ncnc3nc[nH]c23)c([N+](=O)[O-])c1`: the GI50 was inactive: 5.93 µM.

For the compound `Cc1cc2oc(=O)[nH]c(=S)c2c(C)c1C`, the GI50 was inactive: > 100 µM.

Regarding `N#C/N=C(/NCCc1c[nH]c2ccccc12)Oc1ccccc1`, the GI50 was inactive: > 100 µM.

On to `COc1cc(/C=C2\CC(C)C/C(=C\c3ccc(O)c(OC)c3)C2=O)ccc1O` (stereo unspecified), for which the GI50 is inactive: 6.18 µM.

On to `Clc1ccc(-c2cn3c(nc4ccccc43)c(/C=C/c3ccco3)n2)cc1`, for which the GI50 was inactive: > 100 µM.

Regarding `O=C1CCCC/C1=C(\Br)I`, the GI50 was inactive: 17.7 µM.

As to `O=C(NNC(=O)/C(=C/c1cccc([N+](=O)[O-])c1)NC(=O)c1ccccc1)Nc1ccc(Cl)cc1`, the GI50 is inactive: 13.2 µM.

Regarding `Cc1cc2c([N+](=O)[O-])cc3c(c2o1)C(=O)C=CC3=O`, the GI50 is inactive: 17 µM.

As for `CC(C)c1[nH]nc(C(N)=O)c1/N=N/N(C)C`, the GI50 was inactive: > 100 µM.

Consider `COc1cc(NC(C)=O)ccc1C(=O)N/N=C/c1ccco1`, for which the GI50 was inactive: > 100 µM.

Turning to `Clc1cc(Cl)ncn1`, the GI50 was inactive: > 100 µM.

Take `COc1cc(C2S/C(=C/c3ccccc3)C(=O)N2c2cccc(NC(C)=O)c2)cc(OC)c1OC` (stereo unspecified): the GI50 is inactive: 23.8 µM.

`COc1ccccc1NC(=O)CC(=O)n1nc(C)c(/N=N/c2ccccc2F)c1C`: the GI50 was inactive: > 100 µM.

With `O=C(N[C@H]1CC2(C=C(I)C(=O)C(I)=C2)OC1=O)OCc1ccccc1`, the GI50 was inactive: 39.8 µM.

As for `CCOC(=O)c1cc(NC(=O)N(CCC#N)CCN(C(=O)N[C@@H](Cc2ccccc2)C(=O)N[C@@H](CC(C)C)C(=O)NC)c2ccccc2)ccc1OC`, the GI50 was inactive: 79.8 µM.

In the case of `Cc1ccc(C2OC(COCc3ccc(Cl)cc3)C(OCc3ccc(Cl)cc3)C2O)cc1` (stereo unspecified), the GI50 is inactive: 16.6 µM.

Turning to `Cc1ccc(OC2CC(n3cnc4c(=O)[nH]c(Br)nc43)OC2Oc2ccc(C)cc2)cc1` (stereo unspecified), the GI50 is inactive: 20.8 µM.

For `S=C(Nc1ccccc1)Nc1ccccc1SC(/C=C/NNC1=NN=C(c2ccccc2)C(c2ccccc2)N1)c1ccccc1` (stereo unspecified), the GI50 is inactive: > 100 µM.

For the compound `COC(=O)c1cc(C#N)[nH]c1-c1ccsc1`, the GI50 was inactive: > 100 µM.

Take `Nc1ccc(CCSSCCc2ccc(N)cc2)cc1`: the GI50 was inactive: 5.06 µM.

Regarding `CNC(=S)/C(C#N)=C(\N)N1CCN(C)CC1`, the GI50 was inactive: > 100 µM.

For `COc1ccc2c(c1)-c1c(c3cc(OC)ccc3n1CCN1CCOCC1)CC2`, the GI50 was inactive: 64 µM.

`O=P1(O)c2ccccc2CSCc2ccccc21`: the GI50 is inactive: > 100 µM.

As for `CCOP(=O)(OCC)/C(C#N)=C/c1nccn1C`, the GI50 was inactive: > 100 µM.

For the compound `CC(C)C12C=CC(C)(CC1)n1c(=O)c3cc4ccccc4cc3c(=O)n12` (stereo unspecified), the GI50 was inactive: > 100 µM.

Turning to `CN(C)CC1CCCC(CN2CCCCC2)C1=O` (stereo unspecified), the GI50 is inactive: > 100 µM.

On to `COc1ccccc1NC(=O)C(=O)Cc1cnc2ccccc2n1`, for which the GI50 is inactive: > 100 µM.

`CN(C)CCNc1ccc2ncnc3c2c1C(=O)c1ccccc1-3`: the GI50 is active: 0.341 µM.

`C=C(C)C1CCC2(CO)C(O)CC3(C)C(CCC4C5(C)CCC(O)C(C)(C)C5CCC43C)C12` (stereo unspecified): the GI50 was inactive: 10.9 µM.

Consider `CCN(CC)CCC(=O)Nc1ccc2sc3ccccc3c(=O)c2n1`, for which the GI50 is inactive: 16.6 µM.

`c1ccc2c(CNCCCN3CCN(CCCNCc4cccc5ccccc45)CC3)cccc2c1`: the GI50 was inactive: 1.9 µM.

Regarding `O=C(NCCc1ccc(F)cc1)c1cc(/C=C/c2cc(O)ccc2O)ccc1O`, the GI50 is inactive: 12.7 µM.

As to `CCCCc1cc2c(cc1O)CCC1C2CC[C@@]2(C)C1CC[C@@H]2O` (stereo partly specified), the GI50 was inactive: 21.6 µM.
